The list shows a part of the results. Most values come without repeats; read them as rough.
What was measured:
Assay in all cases: proliferation Z-score within cell line (SRB, relative to all inhibitors screened on that line); triple-negative breast cancer lines and a kinase inhibitor library; SRB is the sulforhodamine B protein stain; higher = less growth inhibition (more resistant)
Details in all cases: concentration: 1 µM; 4 days
Bt20 = test system: Bt20
Bt549 = test system: Bt549
HCC1143 = test system: HCC1143
HCC1806 = test system: HCC1806
HCC1937 = test system: HCC1937
HCC38 = test system: HCC38
HCC70 = test system: HCC70
Hs578T = test system: Hs578T
MDA-MB-231 = test system: MDA-MB-231
MDA-MB-435s = test system: MDA-MB-435s
MDA-MB-436 = test system: MDA-MB-436
MDA-MB-453 = test system: MDA-MB-453
MDA-MB-468 = test system: MDA-MB-468
SKBR7 = test system: SKBR7
SUM1315MO2 = test system: SUM1315MO2
SUM149PT = test system: SUM149PT
SUM159PT = test system: SUM159PT
SUM185PE = test system: SUM185PE
SUM229PE = test system: SUM229PE
SUM52PE = test system: SUM52PE
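Further: Single-dose primary screen of a 378-member kinase inhibitor library in 96-well plates, with growth read as absorbance of protein-bound SRB dye after TCA fixation.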

Row | Compound | proliferation Z-score within cell line (Bt20) | proliferation Z-score within cell line (Bt549) | proliferation Z-score within cell line (HCC1143) | proliferation Z-score within cell line (HCC1806) | proliferation Z-score within cell line (HCC1937) | proliferation Z-score within cell line (HCC38) | proliferation Z-score within cell line (HCC70) | proliferation Z-score within cell line (Hs578T) | proliferation Z-score within cell line (MDA-MB-231) | proliferation Z-score within cell line (MDA-MB-435s) | proliferation Z-score within cell line (MDA-MB-436) | proliferation Z-score within cell line (MDA-MB-453) | proliferation Z-score within cell line (MDA-MB-468) | proliferation Z-score within cell line (SKBR7) | proliferation Z-score within cell line (SUM1315MO2) | proliferation Z-score within cell line (SUM149PT) | proliferation Z-score within cell line (SUM159PT) | proliferation Z-score within cell line (SUM185PE) | proliferation Z-score within cell line (SUM229PE) | proliferation Z-score within cell line (SUM52PE)
1 | CC(C)(C)c1nc(-c2cccc(NS(=O)(=O)c3c(F)cccc3F)c2F)c(-c2ccnc(N)n2)s1 | 0.492 | 0.0501 | 0.849 | 0.7 | 0.64 | 0.679 | 0.542 | 0.601 | -0.0358 | -1.45 | -0.307 | 0.439 | -0.0741 | 0.0634 | -0.216 | -0.166 | 0.628 | 0.384 | 1.5 | -0.459
2 | C[C@H](Nc1ncnc2nc[nH]c12)c1cc2cccc(Cl)c2c(=O)n1-c1ccccc1 | 0.456 | -0.572 | 0.0274 | -0.833 | -0.975 | 0.233 | -1.36 | -0.549 | 0.504 | 0.24 | -1.45 | 0.105 | -0.83 | 0.889 | 0.162 | 0.465 | 0.333 | -0.086 | 0.0318 | -0.498
3 | CN(C)CCSSCCNC(=O)C1CCN(C(=O)CSc2ccc(Cl)cc2)CC1 | 0.476 | 0.0134 | 0.647 | -1.21 | 0.355 | 0.00917 | 0.411 | 0.182 | 0.709 | 0.365 | -1.36 | -1.29 | 0.394 | 0.733 | 0.151 | 0.624 | 0.358 | 0.407 | 0.178 | 0.631
4 | CS(=O)(=O)N1CCc2c(-c3cnc(N)nc3)nc(N3CCOCC3)nc21 | -1.8 | 0.463 | 0.599 | 0.206 | 0.592 | 0.63 | 0.7 | 0.359 | -0.68 | -0.74 | 0.572 | -0.807 | -0.301 | 0.682 | -0.411 | 0.00987 | 0.449 | -1.51 | -1.1 | -0.974
5 | COc1c(C)c(C(=O)c2ccc(N)c(C(=O)O)c2)n2ccccc12 | 0.967 | 0.745 | 0.918 | 0.735 | 0.855 | 0.544 | 0.642 | 0.611 | 0.765 | 0.693 | 0.825 | 0.989 | 1.13 | 0.648 | 1.15 | 0.768 | 0.558 | 0.946 | 0.871 | 1.24
6 | CC1=C(C(=O)Nc2cc3cn[nH]c3cc2F)C(c2ccc(C(F)(F)F)cc2)CC(=O)N1 (stereo not given) | 0.616 | 0.333 | 0.663 | 0.401 | 0.885 | 0.111 | 0.574 | -0.0383 | 0.598 | 0.907 | 0.854 | 0.66 | 0.646 | 0.19 | 0.919 | 0.465 | 0.283 | 1.29 | 0.981 | 1.66
7 | O=C1NC(=O)C(=Cc2ccc(-c3ccc(F)cc3)o2)S1 (stereo in doubt) | 0.641 | 0.809 | 0.776 | 0.898 | 0.766 | 0.675 | 0.895 | 0.776 | 0.869 | 0.995 | 0.698 | 1.08 | 1.1 | 0.781 | 1.44 | 1.05 | 0.692 | 1.14 | 0.811 | 1.4
8 | Oc1ccc(-c2nc(-c3ccc(F)cc3)c(-c3ccncc3)[nH]2)cc1 | 1.33 | 0.352 | 0.926 | 0.877 | 0.658 | 0.552 | 0.739 | 0.694 | 0.67 | 0.975 | 0.825 | 0.697 | 1.05 | 0.345 | 0.946 | 0.85 | 0.525 | 1.08 | 2.05 | 1
9 | N#C/C(=C(/N)Sc1ccc(N)cc1)c1ccccc1C(F)(F)F | -0.552 | 0.654 | 0.224 | -0.94 | -0.11 | 0.454 | 0.482 | 0.333 | 0.124 | -0.257 | 0.1 | 1.15 | 0.399 | 1.24 | -0.467 | 0.036 | 0.449 | -0.259 | -0.877 | -0.3
10 | COc1ccc2c(Oc3ccc(NC(=O)c4c(C)n(CC(C)(C)O)n(-c5ccccc5)c4=O)nc3)ccnc2c1 | 0.474 | 0.67 | 0.738 | 0.841 | 0.59 | 0.47 | 0.651 | 0.668 | 1.06 | 0.761 | 0.654 | 0.97 | 1.09 | 0.522 | 0.696 | 0.745 | 0.439 | 0.67 | 0.649 | 0.949
11 | Cc1ccc(NC(=O)c2ccc(CN3CCN(C)CC3)cc2)cc1Nc1nc(-c2cccnc2)cs1 [Masitinib (AB1010)] | 1.02 | 0.757 | -0.0644 | 0.729 | -1.14 | 0.475 | 0.665 | 0.431 | 0.826 | 1.14 | 1.07 | 0.702 | 0.969 | 0.154 | 0.855 | 0.901 | 0.543 | 1.46 | 1.31 | 1.34
12 | O=C(NOCC(O)CO)c1cc(Br)c(F)c(F)c1Nc1ccc(I)cc1F (stereo not given) | 0.098 | 0.413 | -0.651 | -1.34 | 0.288 | -0.126 | 0.314 | -0.448 | -1.78 | -1.61 | -0.0113 | 0.145 | 0.449 | 1.24 | 0.645 | -1.7 | 0.162 | -0.192 | -1.76 | -1.12
13 | C=CC(=O)Nc1cccc(Nc2nc(Nc3ccc(N4CCN(C(C)=O)CC4)cc3OC)ncc2C(F)(F)F)c1 | 0.488 | 0.285 | 0.149 | -0.67 | -0.109 | 0.481 | 0.511 | 0.396 | 0.39 | 0.129 | 0.396 | -0.0726 | -0.0398 | 0.786 | 0.0974 | 0.00208 | 0.49 | -0.0263 | -0.247 | 0.472
14 | C=CC(=O)Nc1ccc2ncnc(Nc3cccc(Br)c3)c2c1 | -0.0339 | 0.294 | -0.388 | -1.37 | -1.24 | 0.358 | 0.194 | 0.322 | 0.543 | 0.229 | -0.0229 | -0.362 | -1.05 | -0.243 | 0.887 | -0.773 | 0.133 | 1.17 | -0.161 | 1.38
15 | Cc1ccc(NC(=O)c2ccc(CN3CCN(C)CC3)cc2)cc1Nc1nccc(-c2cccnc2)n1 [Imatinib (STI571)] | 0.965 | 1.06 | 0.813 | 1.19 | 0.966 | 0.586 | 0.73 | 0.643 | 1.06 | 1.08 | 0.482 | 1.02 | 1.05 | 0.7 | 1.44 | 1.29 | 0.635 | 0.871 | 0.707 | 1.1
16 | Cn1cc(-c2[nH]c3cc(NC(=O)[C@H](N)C4CCCCC4)cc4c3c2C=NNC4=O)cn1 | -0.89 | -2.36 | -2.74 | -2.22 | -0.49 | -2.94 | -3.15 | 0.265 | -1.13 | -1.36 | -2.49 | -1.83 | -2.58 | 0.23 | -2.26 | -2.07 | -0.0773 | -2.35 | -0.415 | -1.87
17 | Cc1ccccc1CN1C2=NCCN2C(=O)C2=C1CCN(Cc1ccccc1)C2 | 0.191 | 0.741 | 0.509 | 0.585 | 0.489 | 0.46 | 0.462 | 0.527 | 0.386 | 0.632 | 0.324 | 0.81 | 0.556 | 0.0606 | 0.183 | 0.544 | 0.418 | 0.0384 | 0.273 | 0.19
18 | COc1cc2ncnc(Nc3ccc(O)c(Br)c3)c2cc1OC | 0.0659 | 0.377 | 0.0669 | 0.0229 | 0.578 | 0.378 | 0.488 | 0.531 | 0.0636 | -1.02 | 0.399 | 0.373 | -0.486 | 0.0528 | 0.293 | -0.646 | 0.273 | 0.286 | -0.501 | 0.658
19 | N#CC1(c2ccc(NC(=O)c3cccnc3NCc3ccncc3)cc2)CCCC1 [Apatinib] | 0.896 | 0.751 | 0.778 | 0.976 | 0.806 | 0.578 | 0.736 | 0.63 | 0.819 | 0.958 | 0.795 | 0.831 | 0.874 | 0.501 | 0.578 | 0.958 | 0.179 | 0.73 | 1.49 | 1.06
20 | O=C(Nc1nc2cccc(-c3ccc(CN4CCS(=O)(=O)CC4)cc3)n2n1)C1CC1 [Filgotinib (GLPG0634)] | 0.549 | 0.283 | 0.394 | 0.313 | 0.419 | 0.469 | 0.548 | 0.398 | 0.588 | 0.657 | 0.433 | 0.655 | 0.584 | 0.759 | 0.663 | 0.699 | 0.531 | 0.992 | 0.339 | 0.488
21 | Nc1ncnc2c1c(-c1cccc(OCc3ccccc3)c1)cn2C1CC(CN2CCC2)C1 (stereo not given) | 0.936 | 0.196 | -1.99 | 0.279 | -1.42 | 0.51 | -1.26 | 0.687 | 0.394 | 0.216 | -2.47 | 0.73 | 1.15 | -0.558 | 0.603 | -0.322 | -2.94 | 1.03 | -0.666 | 1.27
22 | COc1cc2ncnc(Nc3cccc(Cl)c3)c2cc1OC [AG-1478 (Tyrphostin AG-1478)] | 0.319 | 0.696 | 0.459 | -0.198 | -0.0972 | 0.637 | 0.779 | 0.724 | 0.812 | 1.17 | 0.621 | 0.914 | 0.479 | 0.841 | 0.874 | 0.174 | 0.715 | 0.887 | 0.369 | 1.08
23 | Cc1ccc(C(=O)Nc2ccc(CN3CCN(C)CC3)c(C(F)(F)F)c2)cc1C#Cc1cnc2[nH]ncc2c1 | -0.759 | -1.77 | -0.596 | -0.3 | -1.07 | -0.243 | 0.319 | -1.49 | -2.75 | -2.3 | -0.374 | -1.5 | 0.238 | -0.582 | -2.3 | -1.23 | -2.81 | -2.41 | -1.61 | -1.82
24 | NC(=O)c1ccc(N(C(N)=O)c2c(F)cccc2F)nc1-c1ccc(F)cc1F | 0.91 | 0.451 | 0.226 | 0.388 | 0.499 | 0.366 | 0.339 | 0.193 | 0.436 | 0.463 | -0.0746 | 0.302 | 0.859 | -1.1 | 0.961 | 0.0541 | 0.258 | 1.47 | 0.726 | 0.83

— the supplement of paper PMC6746778
